The text below walks through data of the supplement of paper PMC10369915.

Some of the results follow. Rule as the data show it: active = 3.2 or more and inactive = the rest. The signal is at background level for most entries.
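Also: displayed peptides selected on beads carrying the immobilized SH2 domain, with library peptides lacking any tyrosine serving as negative controls.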

The target of the first assay is SHP2 C-SH2 domain E139D. Kind of assay: enrichment score (SH2-bound / input frequency) (ratio); bacterial display of known human phosphotyrosine sites (pTyr-Var adds point mutants) read by sequencing; higher = stronger binding; tyrosines were phosphorylated by kinases first. The note with it: peptide library: Human pTyr.
With NGMNQQAYAYPATAA [DDX5_HUMAN_593], the enrichment score was inactive: 0.651.
As for KPENLLVYEHQDGSK [DCLK1_HUMAN_520], the enrichment score was inactive: 1.11.
Still for that read-out and setting: the value for GGMADPKYADLPGIA [DCTN2_HUMAN_6] was inactive: 0.67; that for AQAQPEDYARFEAKI [DLG2_HUMAN_505_YA] was inactive: 0.944; that for FGMSRNLYSGDAARI [DDR2_HUMAN_736_YA] was inactive: 0.468.
As to DEEMLFIYGHAKQAT [ACBP_HUMAN_29_YA], the enrichment score is inactive: 1.
Consider FGMSRNLYSGDYYRI [DDR2_HUMAN_736], for which the enrichment score was inactive: 0.823.
Turning to ILPPSSIYPSVLASG [DGKA_HUMAN_335], the enrichment score is inactive: 0.725.
Turning to NLYSGDYYRIQGRAV [DDR2_HUMAN_741], the enrichment score is inactive: 0.943.
Take AGIAQGVYSRALLGN [ACD11_HUMAN_324_YA]: the enrichment score is inactive: 0.643.
Consider YEIDGRDYHFVSSRE [DLG4_HUMAN_580], for which the enrichment score is inactive: 0.715.
Still for that read-out and setting: the value for DEEMLFIYGHYKQAT [ACBP_HUMAN_29] was inactive: 1.69.
On to NLASGDAYRIQGRAV [DDR2_HUMAN_741_YA], for which the enrichment score was inactive: 0.769.
NLAAGDAYRVQGRAV [DDR1_HUMAN_797_YA]: the enrichment score is inactive: 0.783.
As to AQGPTISYPMLLHVA [DDR1_HUMAN_740], the enrichment score was inactive: 0.787.
On to EQGSNSTYDRIFPLR [DDR2_HUMAN_471], for which the enrichment score is inactive: 0.6.
ARLLLATYARPPRGP [DDR1_HUMAN_520_YA]: the enrichment score was inactive: 0.742.
Regarding YRLLLATYARPPRGP [DDR1_HUMAN_520], the enrichment score was inactive: 0.74.

A further assay addresses SHP2 C-SH2 domain wild-type. Described as above. The note with it: peptide library: Human pTyr.
As to NGMNQQAYAYPATAA [DDX5_HUMAN_593], the enrichment score was inactive: 0.636.
The same measure, in the same setting: the value for KPENLLVYEHQDGSK [DCLK1_HUMAN_520] was inactive: 0.671; that for GGMADPKYADLPGIA [DCTN2_HUMAN_6] was inactive: 0.507.
Consider AQAQPEDYARFEAKI [DLG2_HUMAN_505_YA], for which the enrichment score is inactive: 1.11.
As for FGMSRNLYSGDAARI [DDR2_HUMAN_736_YA], the enrichment score is inactive: 0.475.
As to DEEMLFIYGHAKQAT [ACBP_HUMAN_29_YA], the enrichment score was inactive: 0.874.
In the case of FGMSRNLYSGDYYRI [DDR2_HUMAN_736], the enrichment score was inactive: 0.898.
As for ILPPSSIYPSVLASG [DGKA_HUMAN_335], the enrichment score was inactive: 0.555.
For the molecule NLYSGDYYRIQGRAV [DDR2_HUMAN_741], the enrichment score was inactive: 0.899.
With AGIAQGVYSRALLGN [ACD11_HUMAN_324_YA], the enrichment score was inactive: 0.447.
On to YEIDGRDYHFVSSRE [DLG4_HUMAN_580], for which the enrichment score is inactive: 0.583.
In the case of DEEMLFIYGHYKQAT [ACBP_HUMAN_29], the enrichment score was inactive: 1.78.
Consider NLASGDAYRIQGRAV [DDR2_HUMAN_741_YA], for which the enrichment score was inactive: 0.625.
On to NLAAGDAYRVQGRAV [DDR1_HUMAN_797_YA], for which the enrichment score is inactive: 0.583.
In the case of AQGPTISYPMLLHVA [DDR1_HUMAN_740], the enrichment score was inactive: 0.734.
With EQGSNSTYDRIFPLR [DDR2_HUMAN_471], the enrichment score is inactive: 0.412.
For the molecule ARLLLATYARPPRGP [DDR1_HUMAN_520_YA], the enrichment score is inactive: 0.605.
As for YRLLLATYARPPRGP [DDR1_HUMAN_520], the enrichment score was inactive: 0.595.

Another assay has as its target SHP2 N-SH2 domain L43F. The assay is described as above. The note with it: peptide library: Human pTyr.
For the molecule NGMNQQAYAYPATAA [DDX5_HUMAN_593], the enrichment score is inactive: 0.565.
The same measure, in the same setting: the value for KPENLLVYEHQDGSK [DCLK1_HUMAN_520] was inactive: 0.599; that for GGMADPKYADLPGIA [DCTN2_HUMAN_6] was inactive: 0.596.
Same read-out and setting: under AQAQPEDYARFEAKI [DLG2_HUMAN_505_YA] stands inactive: 0.987; under FGMSRNLYSGDAARI [DDR2_HUMAN_736_YA], inactive: 0.644.
For DEEMLFIYGHAKQAT [ACBP_HUMAN_29_YA], the enrichment score is inactive: 0.916.
Still for that read-out and setting: the value for FGMSRNLYSGDYYRI [DDR2_HUMAN_736] was inactive: 0.689; that for ILPPSSIYPSVLASG [DGKA_HUMAN_335] was inactive: 0.707.
In the case of NLYSGDYYRIQGRAV [DDR2_HUMAN_741], the enrichment score is inactive: 0.779.
Turning to AGIAQGVYSRALLGN [ACD11_HUMAN_324_YA], the enrichment score was inactive: 0.42.
YEIDGRDYHFVSSRE [DLG4_HUMAN_580]: the enrichment score was inactive: 0.683.
On to DEEMLFIYGHYKQAT [ACBP_HUMAN_29], for which the enrichment score was inactive: 1.64.
NLASGDAYRIQGRAV [DDR2_HUMAN_741_YA]: the enrichment score is inactive: 0.708.
For NLAAGDAYRVQGRAV [DDR1_HUMAN_797_YA], the enrichment score is inactive: 0.737.
Consider AQGPTISYPMLLHVA [DDR1_HUMAN_740], for which the enrichment score is inactive: 0.99.
As for EQGSNSTYDRIFPLR [DDR2_HUMAN_471], the enrichment score is inactive: 0.618.
Turning to ARLLLATYARPPRGP [DDR1_HUMAN_520_YA], the enrichment score is inactive: 0.569.
Take YRLLLATYARPPRGP [DDR1_HUMAN_520]: the enrichment score is inactive: 0.613.

For another assay, the target named is SHP2 N-SH2 domain T42A. The description is as above. The note with it: peptide library: Human pTyr.
With NGMNQQAYAYPATAA [DDX5_HUMAN_593], the enrichment score is inactive: 0.654.
KPENLLVYEHQDGSK [DCLK1_HUMAN_520]: the enrichment score is inactive: 0.765.
The same measure, in the same setting: under GGMADPKYADLPGIA [DCTN2_HUMAN_6] stands inactive: 0.622.
With AQAQPEDYARFEAKI [DLG2_HUMAN_505_YA], the enrichment score is inactive: 0.766.
Regarding FGMSRNLYSGDAARI [DDR2_HUMAN_736_YA], the enrichment score is inactive: 0.575.
With DEEMLFIYGHAKQAT [ACBP_HUMAN_29_YA], the enrichment score is inactive: 0.826.
As to FGMSRNLYSGDYYRI [DDR2_HUMAN_736], the enrichment score was inactive: 0.821.
As to ILPPSSIYPSVLASG [DGKA_HUMAN_335], the enrichment score was inactive: 0.501.
Turning to NLYSGDYYRIQGRAV [DDR2_HUMAN_741], the enrichment score is inactive: 0.85.
On to AGIAQGVYSRALLGN [ACD11_HUMAN_324_YA], for which the enrichment score was inactive: 0.459.
Turning to YEIDGRDYHFVSSRE [DLG4_HUMAN_580], the enrichment score was inactive: 0.483.
Take DEEMLFIYGHYKQAT [ACBP_HUMAN_29]: the enrichment score is inactive: 1.4.
In the case of NLASGDAYRIQGRAV [DDR2_HUMAN_741_YA], the enrichment score was inactive: 0.666.
NLAAGDAYRVQGRAV [DDR1_HUMAN_797_YA]: the enrichment score was inactive: 0.7.
Consider AQGPTISYPMLLHVA [DDR1_HUMAN_740], for which the enrichment score is inactive: 0.863.
Still for that read-out and setting: the value for EQGSNSTYDRIFPLR [DDR2_HUMAN_471] was inactive: 0.474; that for ARLLLATYARPPRGP [DDR1_HUMAN_520_YA] was inactive: 0.525; that for YRLLLATYARPPRGP [DDR1_HUMAN_520] was inactive: 0.696.

A further assay has as its target SHP2 N-SH2 domain T52S. Described as above. The note with it: peptide library: Human pTyr.
With NGMNQQAYAYPATAA [DDX5_HUMAN_593], the enrichment score was inactive: 0.604.
KPENLLVYEHQDGSK [DCLK1_HUMAN_520]: the enrichment score is inactive: 0.738.
In the case of GGMADPKYADLPGIA [DCTN2_HUMAN_6], the enrichment score was inactive: 0.534.
For AQAQPEDYARFEAKI [DLG2_HUMAN_505_YA], the enrichment score was inactive: 0.763.
On the same count and under the same terms, under FGMSRNLYSGDAARI [DDR2_HUMAN_736_YA] stands inactive: 0.543.
With DEEMLFIYGHAKQAT [ACBP_HUMAN_29_YA], the enrichment score was inactive: 1.17.
With FGMSRNLYSGDYYRI [DDR2_HUMAN_736], the enrichment score is inactive: 0.752.
As for ILPPSSIYPSVLASG [DGKA_HUMAN_335], the enrichment score is inactive: 0.648.
Consider NLYSGDYYRIQGRAV [DDR2_HUMAN_741], for which the enrichment score was inactive: 0.804.
AGIAQGVYSRALLGN [ACD11_HUMAN_324_YA]: the enrichment score is inactive: 0.569.
The same measure, in the same setting: under YEIDGRDYHFVSSRE [DLG4_HUMAN_580] stands inactive: 0.503; under DEEMLFIYGHYKQAT [ACBP_HUMAN_29], inactive: 2.33; under NLASGDAYRIQGRAV [DDR2_HUMAN_741_YA], inactive: 0.652.
NLAAGDAYRVQGRAV [DDR1_HUMAN_797_YA]: the enrichment score is inactive: 0.709.
As for AQGPTISYPMLLHVA [DDR1_HUMAN_740], the enrichment score is inactive: 0.914.
Consider EQGSNSTYDRIFPLR [DDR2_HUMAN_471], for which the enrichment score is inactive: 0.473.
For the molecule ARLLLATYARPPRGP [DDR1_HUMAN_520_YA], the enrichment score was inactive: 0.782.
Turning to YRLLLATYARPPRGP [DDR1_HUMAN_520], the enrichment score was inactive: 0.716.

For the next assay, the target named is SHP2 N-SH2 domain wild-type. The assay is described as above. The note with it: peptide library: Human pTyr.
As to NGMNQQAYAYPATAA [DDX5_HUMAN_593], the enrichment score was inactive: 0.638.
For KPENLLVYEHQDGSK [DCLK1_HUMAN_520], the enrichment score is inactive: 0.589.
On to GGMADPKYADLPGIA [DCTN2_HUMAN_6], for which the enrichment score was inactive: 0.606.
Turning to AQAQPEDYARFEAKI [DLG2_HUMAN_505_YA], the enrichment score is inactive: 0.95.
As for FGMSRNLYSGDAARI [DDR2_HUMAN_736_YA], the enrichment score was inactive: 0.555.
For the molecule DEEMLFIYGHAKQAT [ACBP_HUMAN_29_YA], the enrichment score was inactive: 1.01.
Still for that read-out and setting: under FGMSRNLYSGDYYRI [DDR2_HUMAN_736] stands inactive: 0.885.
Regarding ILPPSSIYPSVLASG [DGKA_HUMAN_335], the enrichment score was inactive: 0.515.
On the same count and under the same terms, under NLYSGDYYRIQGRAV [DDR2_HUMAN_741] stands inactive: 0.945.
Take AGIAQGVYSRALLGN [ACD11_HUMAN_324_YA]: the enrichment score was inactive: 0.65.
For the molecule YEIDGRDYHFVSSRE [DLG4_HUMAN_580], the enrichment score was inactive: 0.638.
For the molecule DEEMLFIYGHYKQAT [ACBP_HUMAN_29], the enrichment score was inactive: 2.26.
Turning to NLASGDAYRIQGRAV [DDR2_HUMAN_741_YA], the enrichment score was inactive: 0.687.
On to NLAAGDAYRVQGRAV [DDR1_HUMAN_797_YA], for which the enrichment score was inactive: 0.786.
Turning to AQGPTISYPMLLHVA [DDR1_HUMAN_740], the enrichment score is inactive: 0.749.
Regarding EQGSNSTYDRIFPLR [DDR2_HUMAN_471], the enrichment score is inactive: 0.439.
Consider ARLLLATYARPPRGP [DDR1_HUMAN_520_YA], for which the enrichment score was inactive: 0.671.
With YRLLLATYARPPRGP [DDR1_HUMAN_520], the enrichment score is inactive: 0.699.
